Source: the supplement of paper PMC12217912
The list shows a part of the results. The full chains were built here from the parent and the listed change. Inactive controls read about 0.05.

B1: TEV protease; numbered along this chain (parent)
chain: MGESLFKGPRDYNPISSSICHLTNESDGHTTSLYGIGFGPFIITNKHLFRRNNGTLVVQSLHGVFKVKDTTTLQQHLVDGRDMIIIRMPKDFPPFPQKLKFREPQREERICLVTTNFQTKSMSSMVSDTSCTFPSGDGIFWKHWIQTKDGQCGSPLVSTRDGFIVGIHSASNFTNTNNYFTSVPKNFMELLTNQEAQQWVSGWRLNADSVLWGGHKVFMVKPEEPFQPVKEATQL

Variants of: B1
Test: raw area under fraction-flipped curve 0-4 h after induction (AUC4h, not background-subtracted), DNA-recorder readout of cleavage of the substrate (dimensionless); higher = more cleavage of the substrate by the protease variant
Details: temperature: 34 °C; time window: 0-4 h after rhamnose induction
Experimental: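 In vivo DNA recorder in E. coli TOP10(DE3) ΔrhaA at 34 °C. Each TEVp single-site mutant (parent TEVp 0) is paired with a single-site variant of the 7-mer TEVs (canonical ENLYFQ|S). The substrate sits between flexible linkers in a Bxb1-sfGFP-TEVs-SsrA fusion, so cleavage stabilises Bxb1 and speeds flipping of a recombination array, read by NGS. The value is the raw area under the fraction-flipped curve over 0-4 h after rhamnose induction (AUC4h), with ≥20 reads per time point. It is not background-subtracted; inactive controls average about 0.047.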
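Also: Bxb1 expression induced with 0.2% (w/v) L-rhamnose at OD600 near 0.5, cultures sampled hourly, flipped fraction per protease–substrate barcode pair counted by paired-end Illumina sequencing.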

Row | Variant | area with substrate CNLYFQS | area with substrate DNLYFQS | area with substrate FNLYFQS | area with substrate GNLYFQS | area with substrate HNLYFQS | area with substrate INLYFQS | area with substrate KNLYFQS | area with substrate LNLYFQS | area with substrate MNLYFQS | area with substrate NNLYFQS | area with substrate PNLYFQS | area with substrate QNLYFQS | area with substrate RNLYFQS | area with substrate SNLYFQS | area with substrate TNLYFQS | area with substrate WNLYFQS | area with substrate VNLYFQS | area with substrate YNLYFQS
1 | C20N | 0.0426 | 0.0548 | 0.0444 | 0.0513 | 0.0529 | 0.0399 | 0.0513 | 0.0476 | 0.0531 | 0.0499 | 0.0565 | 0.0562 | 0.0677 | 0.0509 | 0.0463 | 0.0495 | – | –
2 | C20Q | 0.0442 | 0.0473 | – | 0.0431 | 0.0422 | 0.0349 | – | 0.0463 | 0.0332 | 0.0472 | 0.0488 | 0.0449 | – | 0.0468 | – | 0.0514 | 0.0447 | 0.0517
3 | R10M | 0.0728 | 0.0355 | – | – | – | 0.0712 | 0.0727 | 0.055 | 0.0665 | – | 0.0806 | 0.0775 | – | – | 0.0594 | – | – | –
4 | S26L | 0.0511 | 0.0464 | – | – | 0.065 | 0.0538 | – | – | 0.0555 | – | 0.0438 | 0.0509 | 0.0083 | 0.0656 | 0.0708 | 0.058 | – | 0.0522
5 | S26H | 0.0705 | 0.0777 | – | 0.0574 | 0.0587 | 0.0446 | – | 0.06 | – | – | – | – | – | – | 0.0525 | 0.0599 | – | 0.0621
6 | S26N | 0.0648 | 0.0681 | 0.0613 | 0.0451 | 0.0614 | 0.0436 | – | 0.0552 | 0.0549 | 0.0342 | – | 0.0722 | 0.0487 | 0.0711 | – | 0.0552 | – | –
7 | S26P | 0.0627 | 0.067 | 0.058 | 0.053 | 0.0498 | 0.0458 | 0.057 | 0.0512 | 0.0597 | – | 0.057 | – | 0.047 | 0.0553 | 0.0544 | 0.0552 | 0.0447 | 0.0482
8 | K7D | 0.0692 | 0.0769 | 0.031 | 0.0621 | 0.0757 | 0.0814 | – | 0.0586 | – | 0.0665 | – | – | 0.0566 | 0.0753 | 0.0505 | – | 0.0601 | –
9 | S17A | 0.178 | 0.068 | 0.0817 | 0.0601 | 0.0628 | 0.0719 | 0.0665 | 0.0676 | – | – | – | – | – | – | 0.0793 | 0.0572 | – | 0.0671
10 | H21A | 0.0675 | 0.073 | 0.068 | 0.0663 | 0.0617 | 0.0502 | 0.0607 | 0.0566 | 0.0582 | 0.056 | – | – | – | 0.0721 | 0.0758 | 0.0428 | – | 0.0689
11 | H21Q | 0.0747 | 0.0506 | 0.0541 | 0.0672 | 0.0629 | 0.0599 | 0.064 | 0.0599 | 0.0663 | – | 0.0635 | – | – | 0.0677 | 0.0432 | 0.0513 | 0.0635 | 0.0542
12 | H21C | 0.0723 | 0.071 | 0.0436 | – | 0.0713 | 0.0469 | 0.0675 | 0.0636 | – | 0.0604 | 0.0631 | – | 0.0517 | – | 0.074 | 0.0544 | – | 0.0784
13 | I19Y | 0.0525 | 0.0417 | 0.0414 | 0.0486 | 0.0501 | 0.055 | 0.0375 | 0.0546 | – | – | 0.0543 | 0.0508 | – | 0.0607 | 0.0533 | 0.0449 | – | –
14 | I19K | 0.0535 | 0.0417 | 0.0519 | 0.0454 | – | – | 0.0568 | – | 0.0756 | 0.0732 | 0.0498 | – | – | 0.0496 | 0.0468 | 0.0542 | – | 0.0626
15 | I19V | 0.0562 | 0.0851 | – | – | 0.076 | 0.08 | 0.0604 | 0.0477 | 0.0734 | – | 0.0664 | – | – | 0.076 | 0.0661 | 0.0608 | – | –
16 | I19P | 0.0423 | 0.0489 | 0.0403 | 0.042 | 0.0399 | 0.041 | 0.0488 | 0.0539 | 0.041 | 0.0433 | 0.0431 | – | 0.0969 | 0.0669 | 0.0446 | 0.0436 | 0.0437 | 0.0354
17 | I15K | 0.054 | 0.0646 | – | 0.051 | 0.0573 | – | 0.0618 | 0.0551 | – | 0.0575 | 0.0577 | – | – | – | 0.0556 | 0.0451 | – | 0.0551
18 | I15E | 0.0617 | 0.0428 | 0.0315 | 0.0581 | 0.0652 | 0.0528 | 0.0636 | – | – | 0.0543 | 0.0515 | – | – | 0.072 | 0.044 | 0.0554 | – | 0.0543
19 | I15Q | 0.0594 | 0.0707 | 0.0477 | 0.0655 | 0.0615 | – | – | 0.0573 | 0.0606 | 0.0466 | 0.0602 | – | – | 0.0665 | 0.0617 | 0.0627 | – | 0.0717
20 | I15D | 0.0425 | 0.0527 | 0.0536 | 0.0426 | 0.041 | 0.061 | – | 0.0527 | – | 0.0465 | 0.0492 | 0.0415 | – | 0.0584 | 0.057 | 0.0587 | 0.0457 | 0.046
21 | E3H | 0.0801 | 0.0728 | 0.0653 | 0.0692 | 0.0654 | 0.0532 | – | 0.0601 | 0.0822 | 0.0799 | 0.0838 | – | – | 0.0727 | 0.0718 | 0.0672 | – | –
22 | E3M | 0.0612 | 0.117 | – | – | 0.0648 | 0.0583 | 0.0792 | 0.0754 | 0.0645 | 0.059 | 0.0698 | – | – | 0.0786 | 0.0784 | 0.0553 | 0.073 | 0.0814
23 | E3Q | 0.0793 | 0.0835 | 0.0786 | 0.0612 | 0.0687 | – | – | 0.0633 | – | – | 0.0602 | – | – | 0.0657 | 0.0614 | – | 0.07 | 0.058
24 | Y12L | 0.0619 | 0.0863 | 0.0594 | 0.07 | 0.0619 | 0.0692 | – | – | 0.0663 | 0.067 | 0.0819 | – | – | – | 0.0852 | 0.0617 | – | –
25 | N24E | 0.0683 | 0.0754 | – | – | 0.0634 | 0.0634 | – | 0.0616 | 0.0703 | 0.0671 | 0.0722 | 0.0477 | – | 0.0646 | 0.0766 | 0.0699 | 0.0659 | –
26 | T23L | 0.0695 | 0.0848 | 0.0548 | – | 0.0726 | 0.0636 | 0.066 | 0.0714 | 0.0829 | 0.0607 | 0.0725 | – | – | 0.0608 | 0.0651 | 0.0671 | 0.0661 | 0.0756
27 | T23Y | 0.0645 | 0.0898 | 0.0484 | 0.0763 | 0.0631 | 0.0739 | 0.0575 | 0.0739 | 0.061 | 0.0624 | 0.0584 | 0.0686 | 0.0576 | 0.0616 | 0.0848 | 0.0486 | 0.0621 | 0.0493
